Where a chain is given by its changes, count along the chain named. No constants are given. Whether binding was seen depends on the method and setting. Binding seen in cells or lysates may run through a third protein. Some results given as binding are weak or reduced against the parent protein; the word gives no strength. For some assays here: Tags and fused reporters may be left off the sequences shown.

Results on one molecule are retold here after paper PMC3599065.

The target in assay [1] is T1, TAP-JIP1 (in Neuro2a) (mouse) (UniProt Q9WVI9).
T1 sequence: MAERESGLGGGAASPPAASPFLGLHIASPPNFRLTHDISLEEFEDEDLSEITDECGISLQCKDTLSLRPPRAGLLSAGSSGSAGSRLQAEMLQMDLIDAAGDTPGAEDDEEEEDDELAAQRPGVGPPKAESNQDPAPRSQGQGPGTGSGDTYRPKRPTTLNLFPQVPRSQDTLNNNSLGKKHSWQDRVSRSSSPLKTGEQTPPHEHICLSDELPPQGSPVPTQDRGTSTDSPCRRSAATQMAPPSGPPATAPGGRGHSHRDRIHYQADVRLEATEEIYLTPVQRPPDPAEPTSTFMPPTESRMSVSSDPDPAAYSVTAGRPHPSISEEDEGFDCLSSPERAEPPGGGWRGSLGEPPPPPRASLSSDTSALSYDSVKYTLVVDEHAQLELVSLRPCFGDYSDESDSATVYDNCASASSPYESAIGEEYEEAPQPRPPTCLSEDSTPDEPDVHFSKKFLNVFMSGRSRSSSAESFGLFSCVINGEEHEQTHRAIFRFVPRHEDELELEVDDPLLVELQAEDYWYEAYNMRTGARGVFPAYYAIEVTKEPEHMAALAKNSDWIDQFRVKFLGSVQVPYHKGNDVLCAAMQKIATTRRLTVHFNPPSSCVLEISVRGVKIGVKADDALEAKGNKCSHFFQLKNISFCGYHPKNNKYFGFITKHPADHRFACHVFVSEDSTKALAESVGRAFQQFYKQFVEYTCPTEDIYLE
The assay can be described thus: pull-down; lysates of Neuro2a cells transiently expressing TAP-JIP1, treated with SP600125 (20 uM) or DMSO for 2 hours, precipitated with streptavidin sepharose, western blot. In general terms: In western blotting, separated proteins are transferred to a membrane and probed.

For assay [2], the target named is T1, TAP-JIP1 (in Neuro2a) (mouse). In words: pull-down; lysates of Neuro2a cells expressing TAP-JIP1 with T7-DLK-WT, T7-DLK-KR or empty vector (pUC8), precipitated with streptavidin sepharose, western blot of endogenous JIP3 and kinesin-1.
In another assay the target is T2, GFP-JIP1-F687V (mouse) (UniProt Q9WVI9).
T2 sequence: T1 sequence with F687V
The assay can be described thus: co-IP; lysates of differentiated Neuro2a cells expressing GFP-JIP1 constructs or GFP alone, immunoprecipitated with anti-GFP antibody, western blot of endogenous kinesin-1 (KHC), JNK and JIP3; 4 C, 150 mM NaCl, 20 mM Hepes pH 7.5, 0.5% Triton X-100.

The next assay deals with T3, GFP-JIP1-WT (mouse) (UniProt Q9WVI9).
T3 sequence: T1 sequence
Described as above.

The target of another assay is T4, GFP-JIP1-dJBD (mouse) (UniProt Q9WVI9).
T4 sequence: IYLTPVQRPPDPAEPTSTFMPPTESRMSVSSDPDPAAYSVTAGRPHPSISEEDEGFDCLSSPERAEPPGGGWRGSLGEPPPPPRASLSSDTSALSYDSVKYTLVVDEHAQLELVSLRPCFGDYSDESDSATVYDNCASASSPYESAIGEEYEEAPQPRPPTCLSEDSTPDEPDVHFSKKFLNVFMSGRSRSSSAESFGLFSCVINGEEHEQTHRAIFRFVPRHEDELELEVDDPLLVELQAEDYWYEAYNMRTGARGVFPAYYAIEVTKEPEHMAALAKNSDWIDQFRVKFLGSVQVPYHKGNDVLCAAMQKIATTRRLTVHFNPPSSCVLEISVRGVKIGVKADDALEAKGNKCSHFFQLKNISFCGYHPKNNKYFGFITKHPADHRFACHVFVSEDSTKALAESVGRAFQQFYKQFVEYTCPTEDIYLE
Described as above.

B1: JIP3 (endogenous, Neuro2a) (protein, UniProt Q9ESN9 1-1337)
chain: MMEIQMDEGGGVVVYQDDYCSGSVMSERVSGLAGSIYREFERLIHCYDEEVVKELMPLVVNVLENLDSVLSENQEHEVELELLREDNEQLLTQYEREKALRKQAEEKFIEFEDALEQEKKELQIQVEHYEFQTRQLELKAKNYADQISRLEERESEMKKEYNALHQRHTEMIQTYVEHIERSKMQQVGGSGQTESSLPGRSRKERPTSLNVFPLADGMVRAQMGGKLVPAGDHWHLSDLGQLQSSSSYQCPNDEMSESGQSSAAATPSTTGTKSNTPTSSVPSAAVTPLNESLQPLGDYVSVTKNNKQAREKRNSRNMEVQVTQEMRNVSIGMGSSDEWSDVQDIIDSTPELDVCPETRLERTGSSPTQGIVNKAFGINTDSLYHELSTAGSEVIGDVDEGADLLGEFSVRDDFFGMGKEVGNLLLENSQLLETKNALNVVKNDLIAKVDQLSGEQEVLKGELEAAKQAKVKLENRIKELEEELKRVKSEAVTARREPREEVEDVSSYLCTELDKIPMAQRRRFTRVEMARVLMERNQYKERLMELQEAVRWTEMIRASREHPSVQEKKKSTIWQFFSRLFSSSSSPPPAKRSYPSVNIHYKSPTAAGFSQRRSHALCQISAGSRPLEFFPDDDCTSSARREQKREQYRQVREHVRNDDGRLQACGWSLPAKYKQLSPNGGQEDTRMKNVPVPVYCRPLVEKDPSTKLWCAAGVNLSGWKPHEEDSSNGPKPVPGRDPLTCDREGEGEPKSTHPSPEKKKAKETPEADATSSRVWILTSTLTTSKVVIIDANQPGTIVDQFTVCNAHVLCISSIPAASDSDYPPGEMFLDSDVNPEDSGADGVLAGITLVGCATRCNVPRSNCSSRGDTPVLDKGQGDVATTANGKVNPSQSTEEATEATEVPDPGPSESEATTVRPGPLTEHVFTDPAPTPSSSTQPASENGSESNGTIVQPQVEPSGELSTTTSSAAPTMWLGAQNGWLYVHSAVANWKKCLHSIKLKDSVLSLVHVKGRVLVALADGTLAIFHRGEDGQWDLSNYHLMDLGHPHHSIRCMAVVNDRVWCGYKNKVHVIQPKTMQIEKSFDAHPRRESQVRQLAWIGDGVWVSIRLDSTLRLYHAHTHQHLQDVDIEPYVSKMLGTGKLGFSFVRITALLIAGNRLWVGTGNGVVISIPLTETVVLHRGQLLGLRANKTSPTSGEGTRPGGIIHVYGDDSSDKAASSFIPYCSMAQAQLCFHGHRDAVKFFVSVPGNVLATLNGSVLDSPSEGPGPAAPAADAEGQKLKNALVLSGGEGYIDFRIGDGEDDETEECAGDVNQTKPSLSKAERSHIIVWQVSYTPE
Regarding B1, the binding entry is on record as “binds” in assay [1]; “binds” in assay [2]; “no binding” with GFP-JIP1-F687V (mouse); “binds” in the assay with GFP-JIP1-WT (mouse); “binds” with GFP-JIP1-dJBD (mouse).
